Assay results from a collection of fitness landscapes (doi:10.1016/j.celrep.2020.107928).
The full ranking holds about 81,000 sequences; the median of “one-hybrid fitness for binding parS DNA” is about -0.17, and the highest 2% start at about 0.51. The list shows a part of the results.

B1: Caulobacter ParB omega fusion; a variant is named by its letters at X, in order, B8GW30 (parent)
chain: MESVVVGEPGMSEGRRGLGRGLSALLGEVDAAPAQAPGEQLGGSREAPIEILQRNPDQPRRTFREEDLEDLSNSIREKGVLQPILVRPSPDTAGEYQIVAGERAWRAAQRAGLKTVPIMVRELDDLAVLEIGIIENVQRADLNVLEEALSYKVLMEKFERTQENIAQTIGKSXSHVANXMRLLXLPDEVQSYLVSGELTAXHARAIAAAADPVALAKQIIEGGLSVRETEALARKAPNLSAGKSKGGRPPRVKDTDTQALESDLSSVLGLDVSIDHRGSTGTLTITYATLEQLDDLCNRLTRGI

Variants of: B1
Assay: one-hybrid fitness for binding parS DNA (scaled: cognate 1, non-cognate 0); higher = stronger binding
Settings: with parS DNA site
In short: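 Values were rescaled so that cognate is 1 and non-cognate is 0. Each is a fitness, the log change in a variant's read ratio to wild type from Illumina reads of plasmids before and after selection, with three replicate libraries pooled and variants under 10 reads dropped. Selection of the Caulobacter ParB libraries, four specificity codons randomised, used E. coli USO with a HIS3 reporter, site 19 bp from the promoter, on M9-minus-histidine with 0.1 mM IPTG and 5 mM 3-AT for 48 hours at 37°C.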

one-hybrid fitness for binding parS DNA, 0.579:
RSCA

one-hybrid fitness for binding parS DNA, 0.223:
RCVQ

one-hybrid fitness for binding parS DNA, ≤ 0.2:
DRHT
NASW
LYNI
HHGV
VIDW
QVDP
YCFG
RCVP
QWLV
TMKM
LTDA
GIHL
LKCF
NLIH
PIHH
RGVW
KRFR
IALT
LNIN
SLCF
YHVV
YKGC
QITW
HEMM
GFYV
KHTG
NGYG
QLSW
ERTS
NQGS
DHCA
QGTT
KDSR
ALLS
HQNS
VDWS
TFWL
TDGR
FTRD
PRTM
AYVR
SCEQ
KTYS
RRFP
AGTR
QNPV
PPSY
HWAT
HVEA
GGMA
PVYC
HPHC
EKPV
PLPQ
LPGE
RAAQ
QHMY
QFVA
HDDQ
SESV
QMLQ
DTKV
HEYS
HPAR
PMAT
NLCN
TLMS
LPHS
LHWK
ALVF
SVMG
PQNK
AQHK
TKYG
RGVK
VPHA
LCQY
LAEV
ADTM
DSDE
VLYD
YMLA
HHSG
LSGV
SHPC
LGCV
YTDA
SWPV
HPNS
NKQF
MIER
RNPN
KNIF
NSKS
HFGC
MNGV
CRLY
ALHL
SRKH
TIIT
DSDD
RAED
GLVR
QFIT
HIGT
AAMT
NPPT
DLAC
ARAF
LARH
HTHN
NVGY
IWHC
IKQT
QRLD
KTQL
HTDI
DACV
DQIT
QMHP
KIYG
GAAI
MAPT
YQYR
MCDS
CAGV
ASCK
SHMN
TYEA
PISN
MSGD
PKKS
RYIV
CCCR
QWLT
NPRF
LANC
ASNY
AMPD
YKHL
WMTS
QIWR
FQKS
HNPN
NFPH
RRGE
VKFS
ELNF
CQGG
GMYN
RLEW
AIFS
SFGS
IAHG
GRGG
DEER
TLQA
EMDK
ARKM
PHDS
KCNA
GENR
WAER
GMDR
EEDS
THVI
EKIY
LKVM
HMTI
PHSC
WMLS
KGIR
PRHD
SWGH
EFNV
YPLS
LRNA
TQNF
PSHK
GSME
RIEE
CSSF
HYIC
MKMD

one-hybrid fitness for binding parS DNA, 0.205:
SARQ

one-hybrid fitness for binding parS DNA, 0.448:
RYMY

one-hybrid fitness for binding parS DNA, 0.874:
RGRG

one-hybrid fitness for binding parS DNA, 0.288:
RVLW

one-hybrid fitness for binding parS DNA, 0.45:
RQQY

one-hybrid fitness for binding parS DNA, 0.364:
RLYM

one-hybrid fitness for binding parS DNA, 0.777:
RRGN

one-hybrid fitness for binding parS DNA, 0.977:
RVSC

one-hybrid fitness for binding parS DNA, 0.79:
RWTC
